{
  "source": "PubChem BioAssay AID686978",
  "about": "(National Center for Advancing Translational Sciences (NCATS), 2013)",
  "note": "The campaign covered roughly 420,000 compounds. About 64,000 (15%) were called active. The inconclusive results got no clear call from the source; some entries with a clear call stand among them for comparison. Calls come from the whole dose curve; as a rule, active = well fitted inhibition curve with a large enough effect; inconclusive = small, poorly fitted or top-dose-only effect; inactive = flat fitted curve, though single readings scatter. No potency is given beside an inconclusive call; the fits are too rough. The source holds several records for some structures; these can differ, active in one and inactive in another. % is set by controls: 0 for no effect and ±100 for the full control effect; potency is the fitted concentration of half-maximal effect; tags give direction and shape of the fitted curve.",
  "data": [
    {"experiment": "qHTS for Inhibitors of human tyrosyl-DNA phosphodiesterase 1 (TDP1): qHTS in cells in absence of CPT; note: nearly all actives have a fitted effect of over 55% in size", "details": "DT40 Tdp1-/- hTDP1 cells, no CPT, ATP luminescence, 48 h; activity change, negative = growth inhibition: at 46.2 µM (top of the series) unless noted", "how_it_was_run": "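Cells were dispensed at 400 per well, compounds added by pin tool, plates incubated ≥48 hr at 37 °C, then CellTiter-Glo added for 30 min at room temperature before luminescence reading. Line: DT40 Tdp1-/- complemented with hTDP1; camptothecin omitted.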", "values": [
      {"smiles": "Cc1ccc(CNC(=O)CNC(=S)N(Cc2ccccc2)Cc2ccccc2F)cc1", "Potency": "inconclusive [inhibitor, single point]"},
      {"smiles": "COc1ccc(C(=O)Nc2ccc(OC)c([N+](=O)[O-])c2)cc1Br", "Potency": "inconclusive [inhibitor, single point]"},
      {"smiles": "CCCCC[C@@H]1C=C(C(=O)O)[C@H](c2ccc(Cl)cc2)N1S(=O)(=O)c1ccc(C)cc1", "Potency": "inconclusive [inhibitor, single point]"},
      {"smiles": "S=c1nc(NCc2ccc3c(c2)OCO3)c2ccccc2[nH]1", "Potency": "inactive"},
      {"smiles": "COC(=O)N1C(=O)[C@](c2ccc(OC)cc2)(C(C)C)N1C(=O)OC", "Potency": "active: 16.4 µM"},
      {"smiles": "Cc1ccc(NC(=S)NC2CC3CCCC(C2)N3Cc2ccco2)cc1", "note": "(configuration not stated)", "Potency": "inconclusive [inhibitor, single point]"},
      {"smiles": "CCCCCn1ccc(=O)c2c(C(F)(F)F)nccc21", "Potency": "active: 18.4 µM"},
      {"smiles": "COCCN(C(=O)c1snc(C(N)=O)c1N)C(C(=O)NC1CCCCC1)c1ccc(OC)c(OC)c1", "note": "(configuration not stated)", "Potency": "inactive"},
      {"smiles": "Nc1ccccc1Oc1ccc2ccccc2c1", "Potency": "inconclusive [inhibitor, partial curve]"},
      {"smiles": "CC(C)(C)OC(=O)N(CCc1ccccc1)Cc1ccccc1OCc1cccc(NC(=O)/C=C/c2ccccc2)c1", "Potency": "active: 7.31 µM"},
      {"smiles": "O=[N+]([O-])c1cc(C(F)(F)F)ccc1NCCCCNS(=O)(=O)c1ccc(Cl)cc1", "Potency": "active: 14.6 µM"},
      {"smiles": "Cc1ccc(SSc2cc(C)ccc2N)c(N)c1", "Potency": "active: 8.2 µM"},
      {"smiles": "Cc1c(C(=O)Nc2ccc(F)c(Cl)c2)sc2nc3n(c(=O)c12)CCC3", "Potency": "inconclusive [inhibitor, single point]"},
      {"smiles": "COc1cccc2c(=O)n(CC(=O)Nc3cccc(F)c3)ccc12", "Potency": "inconclusive [inhibitor, single point]"},
      {"smiles": "CS(=O)(=O)N1CCC(C(=O)N2CCN(C(c3ccccc3)c3ccccc3)CC2)CC1", "Potency": "inconclusive [inhibitor, single point]"},
      {"smiles": "C/C(=N\\Nc1ncc(Cl)cc1Cl)c1ccc(N2CCOCC2)cc1", "Potency": "inconclusive [inhibitor, single point]"},
      {"smiles": "COc1ccc(/C=N/Nc2ccc([N+](=O)[O-])cc2)cc1Cn1cc([N+](=O)[O-])cn1", "Potency": "inconclusive [inhibitor, partial curve]"},
      {"smiles": "COCCCn1c(=NC(=O)c2ccccc2)c(C#N)cc2c(=O)n3cccc(C)c3nc21", "Potency": "inconclusive [inhibitor, single point]"},
      {"smiles": "Cc1cc(Br)cnc1NC(=S)Nc1ccc(F)cc1F", "activity change, negative = growth inhibition": "inconclusive: -33.3% [inhibitor]"},
      {"smiles": "COc1ccc(-c2cn(Cc3cccc(OC)c3)nn2)cc1", "Potency": "active: 11.2 µM"},
      {"smiles": "CCc1noc(C)c1C(=O)OCC(=O)Nc1ccc(F)cc1Cl", "Potency": "inconclusive [inhibitor, partial curve, poor fit]"},
      {"smiles": "CN(CC(=O)Nc1ccccc1Br)C(=O)CNC(=O)c1ccc(Oc2ccccc2)cc1", "Potency": "inconclusive [inhibitor, single point]"},
      {"smiles": "COC(=O)CNC(=O)CN1C(=O)N(c2cccc(Cl)c2)C(N(O)C(=O)Nc2cccc(Cl)c2)C1(C)C", "note": "(configuration not stated)", "Potency": "inconclusive [inhibitor, partial curve, poor fit]"},
      {"smiles": "CCOC(=O)c1ccc(S(=O)(=O)NCCN2CCOCC2)cc1", "Potency": "inconclusive [inhibitor, single point]"},
      {"smiles": "COC(=O)C=C1CCC2C3CCC4=CC(=O)C(Br)CC4(C)C3C(=O)CC12C", "note": "(configuration not stated)", "Potency": "active: 16.4 µM"},
      {"smiles": "O=C(c1cnn(C(=O)COc2ccc(Cl)cc2)c1)c1ccccc1O", "activity change, negative = growth inhibition": "inconclusive: -32.6% [inhibitor]"},
      {"smiles": "CCC(=O)Nc1ccc(NC(=O)CSc2nc3c(c(=O)n(C)c(=O)n3C)n2CC)cc1", "Potency": "inconclusive [inhibitor, single point]"},
      {"smiles": "O=C(NCCc1ccccc1)C1CCN(c2nc3ccccc3nc2C(F)(F)F)CC1", "Potency": "inconclusive [inhibitor, partial curve]"},
      {"smiles": "CCC(=O)c1cn(CC(=O)OC)c2ccccc12", "Potency": "inactive"},
      {"smiles": "Cc1ccc(C(NC(=O)C2CCN(Cc3ccc(Cl)c(Cl)c3)CC2)c2ccccn2)cc1", "note": "(configuration not stated)", "Potency": "active: 1.3 µM"},
      {"smiles": "Cc1ccc(-n2c(CCc3ccccc3)n[nH]c2=S)cc1C", "Potency": "inconclusive [inhibitor, single point]"},
      {"smiles": "CCCCCSc1nnc2c(n1)[nH]c1c(C)cccc12", "Potency": "active: 2.91 µM"},
      {"smiles": "O=C(NCCCN1CCCC1=O)C1CCN(S(=O)(=O)c2cccc(Cl)c2Cl)CC1", "Potency": "inactive"},
      {"smiles": "CCOc1ccc(C(C)C)cc1S(=O)(=O)n1nc(C)cc1C", "Potency": "active: 13 µM"},
      {"smiles": "CCOC(=O)[C@@H]1[C@H]2COc3cc(OC)ccc3[C@@H]2N2C(=O)N(c3cccc(C)c3)C(=O)[C@@]12C", "Potency": "inactive"},
      {"smiles": "CCCCNc1oc(-c2ccc(OC)cc2)nc1S(=O)(=O)c1ccccc1", "Potency": "inconclusive [inhibitor, single point]"},
      {"smiles": "CCCCNC(=O)CCC(=O)Nc1ccc2nc(N3CCC(C)CC3)cc(C)c2c1", "Potency": "inconclusive [inhibitor, single point]"},
      {"smiles": "CN(CC(=O)Nc1cccc(F)c1)C(=O)/C=C/c1ccc(S(=O)(=O)N2CCCCCC2)cc1", "Potency": "inconclusive [inhibitor, single point]"},
      {"smiles": "CCCOc1ccc(C(=O)N2CCC(c3nc4ccccc4s3)CC2)cc1", "Potency": "inconclusive [inhibitor, partial curve]"},
      {"smiles": "Cc1nn(Cc2ccc(Cl)cc2Cl)c(C)c1NC(=O)C1C2CCC(O2)C1C(=O)O", "note": "(configuration not stated)", "Potency": "active: 14.6 µM"},
      {"smiles": "CCOc1ccc(N(CC(=O)NCc2ccccc2OC)S(C)(=O)=O)cc1", "activity change, negative = growth inhibition": "inconclusive: -32.8% [inhibitor]"},
      {"smiles": "COc1cccc(C(=O)NCc2ccc(N3CCN(C(=O)OC(C)(C)C)CC3)cc2)c1", "Potency": "inconclusive [inhibitor, partial curve]"},
      {"smiles": "CCn1nc(C)c(CN2CCCC(CO)(Cc3cccc(Cl)c3)C2)c1C", "note": "(configuration not stated)", "Potency": "active: 16.4 µM"},
      {"smiles": "OC[C@@H]1CN(Cc2ccc3c(c2)OCO3)C[C@H](n2cnc3c(NC4CCC4)ncnc32)O1", "Potency": "inconclusive [inhibitor, partial curve]"},
      {"smiles": "COc1ccc(C(=O)N2CCCC(CCC(=O)NCc3ccc(F)c(F)c3)C2)cc1F", "note": "(configuration not stated)", "Potency": "inconclusive [inhibitor, single point]"},
      {"smiles": "O=C(NCC1CCCCC1)c1ccccc1[N+](=O)[O-]", "Potency": "inactive"},
      {"smiles": "O=C(Nc1ccc(F)cc1F)c1ccc(-n2cncn2)nc1", "Potency": "inactive"},
      {"smiles": "Cc1cccc(C)c1-n1nnnc1C(c1ccnc2ccccc12)N(Cc1ccccc1)Cc1ccccc1", "note": "(configuration not stated)", "Potency": "inconclusive [inhibitor, single point]"},
      {"smiles": "COc1cc(SC)ccc1C(=O)OC(C)C(=O)Nc1ccc(NC(C)=O)cc1", "note": "(configuration not stated)", "Potency": "inconclusive [inhibitor, partial curve, poor fit]"},
      {"smiles": "C[C@@H]1C(NC(=O)c2ccccc2)CC2CC1C2(C)C", "note": "(some centres not stated)", "Potency": "inconclusive [inhibitor, partial curve]"},
      {"smiles": "Cc1ccc(N2C(=O)N(CC(=O)N3c4ccccc4CC3C)C(=O)C2C)cc1", "note": "(configuration not stated)", "Potency": "inactive"},
      {"smiles": "CCc1nnc(NC(=O)C2CCN(C(=O)c3ccccc3C)CC2)s1", "Potency": "inactive"},
      {"smiles": "O=S(=O)(NCC(c1ccco1)N1CCN(c2ccccc2)CC1)c1cc(F)ccc1F", "note": "(configuration not stated)", "Potency": "inconclusive [inhibitor, single point]"},
      {"smiles": "O=C(NC1CCCCC1)C(c1ccc2ncccc2c1)N(Cc1ccco1)C(=O)c1ccc2c(c1)OCCO2", "note": "(configuration not stated)", "Potency": "inconclusive [inhibitor, single point]"},
      {"smiles": "CC(C)CN(CCOc1cccc(N2C(=O)C3=C(CCCC3)C2=O)c1)CC(C)C", "Potency": "inconclusive [inhibitor, partial curve, poor fit]"},
      {"smiles": "O=C(NCC(c1cccnc1)N1CCN(c2ccccc2)CC1)C1CCCCC1", "note": "(configuration not stated)", "Potency": "inconclusive [inhibitor, partial curve]"},
      {"smiles": "CCOC(=O)c1cc(S(=O)(=O)Nc2ccc(OC)cc2OC)cn1C", "Potency": "inconclusive [inhibitor, partial curve, poor fit]"},
      {"smiles": "CCCCSCCCNC(=O)C1CCC(CNS(=O)(=O)c2ccc(NC(C)=O)cc2)CC1", "note": "(configuration not stated)", "Potency": "inactive"},
      {"smiles": "CCC1CN(C(=O)N2CCC(C(=O)NCc3ccccc3OC)CC2)c2cc(C)ccc2O1", "note": "(configuration not stated)", "Potency": "inconclusive [inhibitor, single point]"},
      {"smiles": "CCn1c(C)nc2cc(C(=O)N/N=C/c3ccc(O)c(O)c3O)ccc21", "Potency": "inconclusive [inhibitor, single point]"},
      {"smiles": "COc1cccc(C(=O)NCC2CCCN(C(=O)Cc3cccc(C)c3)C2)c1OC", "note": "(configuration not stated)", "Potency": "inconclusive [inhibitor, partial curve]"},
      {"smiles": "COc1ccc(-n2ncc(C(C)NS(=O)(=O)c3cccs3)c2C)cc1", "note": "(configuration not stated)", "Potency": "inconclusive [inhibitor, single point]"},
      {"smiles": "CCOC(=O)C1(CCOc2ccccc2)CCN(Cc2ccc(CO)o2)CC1", "Potency": "active: 2.31 µM"},
      {"smiles": "CC(C)CCN(CCC(C)C)C/C(O)=C(\\C#N)c1nc(-c2ccccc2)cs1", "Potency": "inconclusive [inhibitor, single point]"},
      {"smiles": "O=[N+]([O-])c1ccc(/C=N\\NS(=O)(=O)c2ccc(F)cc2)o1", "Potency": "inconclusive [inhibitor, single point]"},
      {"smiles": "c1ccc(C[C@H]2CNCCN2CC2(c3ccccc3)CC2)cc1", "Potency": "inconclusive [inhibitor, single point]"},
      {"smiles": "C[C@@H]1CN([C@@H](C)CO)C(=O)c2cc(Br)cnc2O[C@H]1CN(C)C(=O)CCN1CCCCC1", "Potency": "inactive"}
    ]}
  ]
}
